Experimental data reported in PubChem BioAssay (NCI).
Several values for one entry are separate records, joined by “and”; a condition that tells them apart may be missing. Equal values may be shown once.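 Method: 48-hour compound exposure of cells in 96-well plates, five concentrations, linear interpolation of endpoints. At the GI50, growth is halved. TGI marks complete inhibition of growth.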

Experiments:
Assay in all cases: NCI anticancer screen, dose series, 48 h
BT-549 breast = system: BT-549 breast
DU-145 prostate = system: DU-145 prostate
HS 578T breast = system: HS 578T breast
M14 melanoma = system: M14 melanoma
MDA-MB-231 breast = system: MDA-MB-231 breast
MDA-MB-435 = system: MDA-MB-435
PC-3 prostate = system: PC-3 prostate
SK-MEL-5 melanoma = system: SK-MEL-5 melanoma

CN[C@H]1C[C@@H]2O[C@@](C)([C@H]1OC)n1c3ccccc3c3c4c(c5c6ccccc6n2c5c31)C(=O)NC4
GI50 (BT-549 breast): 6.86 nM
TGI (BT-549 breast): 84.2 nM
GI50 (DU-145 prostate): 1.54 nM
TGI (DU-145 prostate): 415 nM
GI50 (HS 578T breast): 0.607 nM
TGI (HS 578T breast): 134 nM
GI50 (M14 melanoma): 6.47 nM
TGI (M14 melanoma): 191 nM
GI50 (MDA-MB-231 breast): 0.897 nM
TGI (MDA-MB-231 breast): 239 nM
GI50 (MDA-MB-435): 25 nM
TGI (MDA-MB-435): 279 nM
GI50 (PC-3 prostate): 3.96 nM
GI50 (SK-MEL-5 melanoma): 12.8 nM
TGI (SK-MEL-5 melanoma): 214 nM and 164 nM and 125 nM
